In one test the target is T1, human B7-H4 (human, UniProt Q7Z7D3 25-282).
T1 construct: whole, on cells; also called VTCN1; SK-BR-3 cell line highly expressing B7-H4
T1 sequence (looked up): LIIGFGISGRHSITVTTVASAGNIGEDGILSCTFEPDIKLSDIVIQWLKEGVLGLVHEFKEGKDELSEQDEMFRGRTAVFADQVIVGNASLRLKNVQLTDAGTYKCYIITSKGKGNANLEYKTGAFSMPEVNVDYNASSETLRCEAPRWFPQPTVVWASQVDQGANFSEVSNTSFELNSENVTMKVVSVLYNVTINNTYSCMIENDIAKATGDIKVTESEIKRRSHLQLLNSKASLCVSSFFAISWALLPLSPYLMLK
The experiment in a line: FACS, SK-BR-3 cells [B].

Another test deals with T2, cynomolgus monkey 4-1BB (cynomolgus monkey).
T2 construct: whole, on cells; also called CHO-K1-cyno 4-1BB; CHO-K1/cyno4-1BB
The experiment in a line: FACS, CHO-K1/cyno 4-1BB cells [B].

Numbering of substitutions follows the chain as printed. Numbers in names are those of the source.

B1: PR002792 (bispecific antibody, human IgG1, kappa, L234A L235A)
polypeptide chain 1: EIVMTQSPATLSVSPGERATLSCRASQSISSNLGWYQQKPGQAPRLLIYGASTRATGIPARFSGSGSGTEFTLTISSLQSEDFAVYYCQQYNSWPPLTFGGGTKVEIKRTVAAPSVFIFPPSDEQLKSGTASVVCLLNNFYPREAKVQWKVDNALQSGNSQESVTEQDSKDSTYSLSSTLTLSKADYEKHKVYACEVTHQGLSSPVTKSFNRGEC
polypeptide chain 2: QVQLVESGGGVVQPGRSLRLSCAASGFTFRSFGMHWVRQAPGKGLEWVAVISYDGSNEYYADSVKGRFIISRDNSKDTLYLQMNSLRAGDTAVYYCAKGGGLRWYFAYWGQGTLVTVSSASTKGPSVFPLAPSSKSTSGGTAALGCLVKDYFPEPVTVSWNSGALTSGVHTFPAVLQSSGLYSLSSVVTVPSSSLGTQTYICNVNHKPSNTKVDKKVEPKSCDKTHTCPPCPAPEAAGGPSVFLFPPKPKDTLMISRTPEVTCVVVDVSHEDPEVKFNWYVDGVEVHNAKTKPREEQYNSTYRVVSVLTVLHQDWLNGKEYKCKVSNKALGAPIEKTISKAKGQPREPQVYTLPPSREEMTKNQVSLTCLVKGFYPSDIAVEWESNGQPENNYKTTPPVLDSDGSFFLYSKLTVDKSRWQQGNVFSCSVMHEALHNHYTQKSLSLSPGEPKSSDKTHTPPPPPRTEVQLLESGGGLVQPGGSLRLSCTASGFTFSNYAMSWVRQAPEKGLEWVSSISGSGGSTFYADSVKGRFTISRDNSKNTLYLQMNRLTAEDTAVYYCAKEGSNGTDDYHYDIDVWGQGTTVTVSS
notes: IgG-VH: PR001476 IgG + PR001763 VH, linker H1_15-RT, human IgG1 (L234A, L235A, P329G)
Consider B1, for which, in the test with human B7-H4, the EC50 was determined as 0.575 nM and the “Maximum MFI” value is 30400 MFI.

B2: PR002793 (bispecific antibody, human IgG1, kappa, L234A L235A)
polypeptide chain 1: B1 polypeptide chain 1
polypeptide chain 2: QVQLVESGGGVVQPGRSLRLSCAASGFTFRSFGMHWVRQAPGKGLEWVAVISYDGSNEYYADSVKGRFIISRDNSKDTLYLQMNSLRAGDTAVYYCAKGGGLRWYFAYWGQGTLVTVSSASTKGPSVFPLAPSSKSTSGGTAALGCLVKDYFPEPVTVSWNSGALTSGVHTFPAVLQSSGLYSLSSVVTVPSSSLGTQTYICNVNHKPSNTKVDKKVEPKSCDKTHTCPPCPAPEAAGGPSVFLFPPKPKDTLMISRTPEVTCVVVDVSHEDPEVKFNWYVDGVEVHNAKTKPREEQYNSTYRVVSVLTVLHQDWLNGKEYKCKVSNKALGAPIEKTISKAKGQPREPQVYTLPPSREEMTKNQVSLTCLVKGFYPSDIAVEWESNGQPENNYKTTPPVLDSDGSFFLYSKLTVDKSRWQQGNVFSCSVMHEALHNHYTQKSLSLSPGEPKSSDKTHTPPPPPRTEVQLLESGGGLVQPGGSLRLSCAASGFTFSSYAMSWVRQAPEKGLEWVSAISGGGGSTYYADSVKGRFTISRDNSKNTLYLQMDSLKAEDTAVYYCAKEGTTETDDYHYNMDVWGQGTTVTVSS
notes: IgG-VH: PR001476 IgG + PR001764 VH, linker H1_15-RT, human IgG1 (L234A, L235A, P329G)
Regarding B2, in the test with human B7-H4, the concentration giving a half-maximal response (EC50) turned out to be 0.565 nM and the “Maximum MFI” value stood at 31300 MFI.

B3: PR002789 (bispecific antibody, human IgG1, kappa, L234A L235A)
light: B1 polypeptide chain 1
heavy: QVQLVESGGGVVQPGRSLRLSCAASGFTFRSFGMHWVRQAPGKGLEWVAVISYDGSNEYYADSVKGRFIISRDNSKDTLYLQMNSLRAGDTAVYYCAKGGGLRWYFAYWGQGTLVTVSSASTKGPSVFPLAPSSKSTSGGTAALGCLVKDYFPEPVTVSWNSGALTSGVHTFPAVLQSSGLYSLSSVVTVPSSSLGTQTYICNVNHKPSNTKVDKKVEPKSCDKTHTCPPCPAPEAAGGPSVFLFPPKPKDTLMISRTPEVTCVVVDVSHEDPEVKFNWYVDGVEVHNAKTKPREEQYNSTYRVVSVLTVLHQDWLNGKEYKCKVSNKALGAPIEKTISKAKGQPREPQVYTLPPSREEMTKNQVSLTCLVKGFYPSDIAVEWESNGQPENNYKTTPPVLDSDGSFFLYSKLTVDKSRWQQGNVFSCSVMHEALHNHYTQKSLSLSPGEPKSSDKTHTPPPPPRTQVQLQQWGAGLLKPSETLSLTCAVYGGSFSGYYWSWIRQPPGKGLEWIGEIQHSGSTDSNPSLKGRVTFSVDTSKNQFSLKLNSVTAADTAVYYCARLTGPFDYWGQGTLVTVSSGGGGSGGGGSGGGGSEIVMTQSPATLSVSPGERATLSCRASQSISSILAWYQQKPGQAPRLLIYGASTRATGIPARFSGSGSGTEFTLTISSLQSEDFAVYYCQQYYNWPLTFGGGTKVEIK
notes: IgG-scFv tetravalent symmetric; PR001476 IgG x PR000448 scFv; IgG1 (L234A, L235A, P329G)
Regarding B3, in the test with human B7-H4, the 50% effective concentration (EC50) came to 0.392 nM and the “Maximum MFI” value came to 34300 MFI.

B4: PR002794 (bispecific antibody, human IgG1, kappa, L234A L235A)
polypeptide chain 1: B1 polypeptide chain 1
polypeptide chain 2: QVQLVESGGGVVQPGRSLRLSCAASGFTFRSFGMHWVRQAPGKGLEWVAVISYDGSNEYYADSVKGRFIISRDNSKDTLYLQMNSLRAGDTAVYYCAKGGGLRWYFAYWGQGTLVTVSSASTKGPSVFPLAPSSKSTSGGTAALGCLVKDYFPEPVTVSWNSGALTSGVHTFPAVLQSSGLYSLSSVVTVPSSSLGTQTYICNVNHKPSNTKVDKKVEPKSCDKTHTCPPCPAPEAAGGPSVFLFPPKPKDTLMISRTPEVTCVVVDVSHEDPEVKFNWYVDGVEVHNAKTKPREEQYNSTYRVVSVLTVLHQDWLNGKEYKCKVSNKALGAPIEKTISKAKGQPREPQVYTLPPSREEMTKNQVSLTCLVKGFYPSDIAVEWESNGQPENNYKTTPPVLDSDGSFFLYSKLTVDKSRWQQGNVFSCSVMHEALHNHYTQKSLSLSPGEPKSSDKTHTPPPPPRTEVQLVETGGGLIQPGGSLRLSCAASGFTVSSNYMSWVRQAPGKGLEWVSVIYSDGSTYYADSVKGRFTISRDNSKNTLYLQMNSLRAEDTAVYYCARDRYYGSGNYPTAYYGMDVRGQGTTVTVSS
notes: IgG-VH: PR001476 IgG + PR001767 VH, linker H1_15-RT, human IgG1 (L234A, L235A, P329G)
In the case of B4, in the test with human B7-H4, the EC50 turned out to be 0.418 nM and the “Maximum MFI” value came to 30200 MFI.

B5: PR002795 (bispecific antibody, human IgG1, kappa, L234A L235A)
polypeptide chain 1: B1 polypeptide chain 1
polypeptide chain 2: QVQLVESGGGVVQPGRSLRLSCAASGFTFRSFGMHWVRQAPGKGLEWVAVISYDGSNEYYADSVKGRFIISRDNSKDTLYLQMNSLRAGDTAVYYCAKGGGLRWYFAYWGQGTLVTVSSASTKGPSVFPLAPSSKSTSGGTAALGCLVKDYFPEPVTVSWNSGALTSGVHTFPAVLQSSGLYSLSSVVTVPSSSLGTQTYICNVNHKPSNTKVDKKVEPKSCDKTHTCPPCPAPEAAGGPSVFLFPPKPKDTLMISRTPEVTCVVVDVSHEDPEVKFNWYVDGVEVHNAKTKPREEQYNSTYRVVSVLTVLHQDWLNGKEYKCKVSNKALGAPIEKTISKAKGQPREPQVYTLPPSREEMTKNQVSLTCLVKGFYPSDIAVEWESNGQPENNYKTTPPVLDSDGSFFLYSKLTVDKSRWQQGNVFSCSVMHEALHNHYTQKSLSLSPGEPKSSDKTHTPPPPPRTEVQLLESGGGLVQPGGSLRLSCAASGFTFSNYAMTWVRQAPGKGLEWVSSISGSGDSTYYADSVKGRFTISRDNSKNTLYLQMNSLRAEDTAVYYCAKEGTGTTSDYYYNVDVWGQGTTVTVSS
notes: IgG-VH: PR001476 IgG + PR001768 VH, linker H1_15-RT, human IgG1 (L234A, L235A, P329G)
For B5, in the test with human B7-H4, the EC50 came out at 0.643 nM and the “Maximum MFI” value was 30100 MFI.

B6: PR003338 (bispecific antibody, human IgG1, kappa)
light: B1 polypeptide chain 1 with N92Q
heavy: QVQLVESGGGVVQPGRSLRLSCAASGFTFRSFGMHWVRQAPGKGLEWVAVISYDASNEYYADSVKGRFIISRDNSKDTLYLQMNSLRAGDTAVYYCAKGGGLRWYFAYWGQGTLVTVSSASTKGPSVFPLAPSSKSTSGGTAALGCLVKDYFPEPVTVSWNSGALTSGVHTFPAVLQSSGLYSLSSVVTVPSSSLGTQTYICNVNHKPSNTKVDKKV[letters of human IgG1 Fc with changes not shown]EPKSSDKTHTPPPPPRTEVQLLESGGGLVQPGGSLRLSCAASGFTFSNYAMSWFRQPPETGLKWVSSIDASGGDTYYADSVKGRFTISRDNSKNTLYLQMNSLRAEDTAVYYCAKEGSHGTDDSHYDVDVWGQGTTVTVSS
notes: IgG-VH tetravalent symmetric; PR002408 IgG x PR004469 VH; linker H1_15-RT; IgG1 (L234A, L235A)
With B6, in the test with cynomolgus monkey 4-1BB, a half-maximal effect (EC50) was put at 1.29 nM and the “Maximum MFI” value turned out to be 25200 MFI.

B7: PR002972 (bispecific antibody, human IgG1, kappa, L234A L235A)
light: EIVMTQSPASLSVSPGERATLSCRASQSVSSNLAWYQQKPGQAPRLLIYGASTRATGIPARVSGGGSGTEFTLTISSLQSEDFAVYYCQQYKNWPFTFGPGTKLEIKRTVAAPSVFIFPPSDEQLKSGTASVVCLLNNFYPREAKVQWKVDNALQSGNSQESVTEQDSKDSTYSLSSTLTLSKADYEKHKVYACEVTHQGLSSPVTKSFNRGEC
heavy: QVQLVQSGAEVKKPGSSMRVSCKASEDTFSSYAISWVRQAPGQGLEWMGGTAPIFGTTNYAQKFQGRVTITADKSTSTAYMELSSLRSEDTAVYYCARGGPYFDYWGQGTLVTVSSASTKGPSVFPLAPSSKSTSGGTAALGCLVKDYFPEPVTVSWNSGALTSGVHTFPAVLQSSGLYSLSSVVTVPSSSLGTQTYICNVNHKPSNTKVDKKVEPKSCDKTHTCPPCPAPEAAGGPSVFLFPPKPKDTLMISRTPEVTCVVVDVSHEDPEVKFNWYVDGVEVHNAKTKPREEQYNSTYRVVSVLTVLHQDWLNGKEYKCKVSNKALGAPIEKTISKAKGQPREPQVYTLPPSREEMTKNQVSLTCLVKGFYPSDIAVEWESNGQPENNYKTTPPVLDSDGSFFLYSKLTVDKSRWQQGNVFSCSVMHEALHNHYTQKSLSLSPGEPKSSDKTHTPPPPPRTQVQLQQWGAGLLKPSETLSLTCAVYGGSFSGYYWSWIRQPPGKGLEWIGEIQHSGSTDSNPSLKGRVTFSVDTSKNQFSLKLNSVTAADTAVYYCARLTGPFDYWGQGTLVTVSSGGGGSGGGGSGGGGSEIVMTQSPATLSVSPGERATLSCRASQSISSILAWYQQKPGQAPRLLIYGASTRATGIPARFSGSGSGTEFTLTISSLQSEDFAVYYCQQYYNWPLTFGGGTKVEIK
notes: IgG-scFv tetravalent symmetric; PR002410 IgG x PR000448 scFv; IgG1 (L234A, L235A, P329G)
As to B7, in the test with human B7-H4, the EC50 was 3.31 nM and the “Maximum MFI” value was 42300 MFI.

The record behind these values is US20230235090A1 (HARBOUR BIOMED US, published 2023).
